# Several values for one entry are separate records, joined by “and”; a condition that tells them apart may be missing. Identical values can stand only once.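 Assay format: 96-well plates, 48-hour exposure. At the GI50, growth is halved. The concentration for full growth arrest is given as TGI.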 Square brackets hold non-standard residues; d marks the D form. Peptide text beside a SMILES is read from it. * marks the point of attachment. ξ: configuration not given here. NMeF = CN[C@@H](Cc1ccccc1)C(=O)O; ξNMeV = CNC(C(=O)O)C(C)C; Boc = CC(C)(C)OC(=O)*; OBn = c1ccc(CO*)cc1
# System: NCI-H322M lung
# Test: NCI anticancer screen, dose series, 48 h
SMILES,GI50,TGI
Cc1cc(-c2nc(-c3ccc(OC(F)(F)F)cc3)no2)nn1Cc1ccnc(N2CCN(C3CC3)CC2)c1,19 µM,> 100 µM
CC1C/C(=N\N(C)C)C(C#N)(C#N)C1(C#N)C#N (configuration not stated),,> 71.4 µM
N#Cc1c(NC(=O)CN2CCOCC2)sc2c1CCCC2,> 25 µM,> 25 µM
O=C(/C=C(\Nc1ccccc1O)c1ccccc1)C(=O)NC12CC3CC(CC(C3)C1)C2,,> 10 µM
Cc1cc(NS(=O)(=O)c2ccc(NC(=O)c3cccc4c(Nc5ccc(S(=O)(=O)Nc6cc(C)on6)cc5)c5ccccc5nc34)cc2)no1,,> 100 µM
CCN(CC)CCCC(Nc1c2ccc(Cl)cc2nc2ccc(OC)cc12)c1ccc(F)cc1 (configuration not stated),2.43 µM,6.17 µM
CCCN(CCC)CCCNC(=O)c1cc2c(-c3ccc(OC)c(OC)c3)nn(C)c2s1,35.8 µM,> 100 µM
O=C1CN2C(Cl)(Cl)C2(c2ccccc2)c2cc(Cl)ccc2N1CC(F)(F)F (configuration not stated),,92 µM
C=C(C)[C@@]1(O)CCC[C@H]1NC(=O)OC(C)(C)C,,> 100 µM
C/C(=N/NC(=O)C(N)=O)C(CC(C(=O)Nc1ccccc1C)/C(C)=N\NC(=O)C(N)=O)C(=O)Nc1ccccc1C (configuration not stated),,> 100 µM
CCC[CH2][Sn]([CH2]CCC)([O]C(=O)c1nccnc1N)[O]C(=O)c1nccnc1N,1.78 µM,3.22 µM
COc1cc(C(C)c2cc3c(cc2OCCCCOc2cc4c(cc2C(C)c2cc(OC)c(OC)c(OC)c2)OCO4)OCO3)cc(OC)c1OC (configuration not stated),,> 100 µM
COc1ccc(C(C2C(=O)N(C)C(=O)N(C)C2=O)C(F)(F)C(=O)N(C)C)cc1 (configuration not stated),,> 100 µM
COC(=O)c1ccc([N+](=O)[O-])c(O)c1,,> 100 µM
O=c1[nH]c(SCc2c(Cl)c(Cl)c(Cl)c(Cl)c2Cl)nc(=S)[nH]1,,> 100 µM
COc1ccccc1S(=O)Nc1ccccc1 (configuration not stated),,> 100 µM
OCC1OC(n2nc(-c3ccccc3)nc2-c2cnccn2)C(O)C1O (configuration not stated),,> 100 µM
COc1ccc([N-]/C(=N\n2c(=O)c(C)nn(C)c2=S)N(c2ccc(OC)cc2)c2nn3c(=O)c(C)n[n+](C)c3s2)cc1,,> 100 µM
Cc1c[nH]c(C(=O)O)c1-c1ccc2c(-c3ccccc3)nc3ccccc3n12,,> 100 µM
CC1(C)CN=C(Nc2ccc(Cl)cc2)S1,,> 100 µM
CC1(C)C(=S)C(C)(C)C1=S,,> 100 µM
CC(=O)OC(C)(C)N=Nc1ccc(Br)cc1,,> 100 µM
Cc1ccc2c(c1)[nH]c(=S)n2C=C1C(=O)CC(C)(C)CC1=O,,> 100 µM
NC(=S)N1N=C2c3ccccc3CC[C@H]2[C@@H]1c1cccs1,,> 100 µM

SMILES,GI50,TGI
c1ccc2sc(C3(N4CCCCC4)CCCCCC3)cc2c1,,49.6 µM
CC[C@@H](C(=O)[C@@H](C)[C@@H](O)[C@H](C)[C@@H]1O[C@@H]([C@@H](CC)C(=O)O)CC[C@@H]1C)[C@H]1OC2(C=C[C@@H](O)[C@]3(CC[C@@](C)([C@H]4CC[C@](O)(CC)[C@H](C)O4)O3)O2)[C@H](C)C[C@@H]1C (some centres not stated),2 µM,15.1 µM
O=C(N/N=C1/C(=O)c2c3ccccc3cc3cccc1c23)c1cccc(Cl)c1,,> 100 µM
COc1ccc(C2=NN(c3ccccc3)C(c3cc4cc(Br)ccc4nc3Cl)C2)cc1 (configuration not stated),,> 25 µM
CC1(C)CC2C=C(C=O)C3(C=O)CC3(C)C2C1 (configuration not stated),,25.4 µM
CC(C)c1cccc(C(C)C)c1NC(=O)C(=O)C(C(=O)c1ccc2ccccc2c1)C1OC(=O)c2ccccc21 (configuration not stated),,> 100 µM
COC(=O)C1CCC(Nc2cccc(C(F)(F)F)c2)=N1 (configuration not stated),,> 100 µM
COC(=O)C(Cc1ccccc1I)C1=CCC2(CC1)OCCO2 (configuration not stated),,> 100 µM
CC(=O)OC1CCC2(C)C(=CCC3C2CCC2(C)C(C(C)C(=O)O)CCC32)C1 (configuration not stated),,> 100 µM
COc1ccc2c(=O)c3cc([N+](=O)[O-])ccc3n(C)c2c1,,> 100 µM
CC1=C(/C=C/C(C)=C/C=C/C(C)=C/C(=O)Nc2ccc(O)cc2)C(C)(C)CCC1,14.7 µM,29.3 µM and 19.4 µM
COc1cc2nc(N3CCN(C(=O)c4ccco4)CC3)nc(N)c2cc1OC,,36.9 µM
CCOC(=O)c1cccc([N+](=O)[O-])c1N,,> 100 µM
CC(C)C(C(=O)N1CCC[C@@H]1C(=O)OCc1ccccc1)N(C)C(=O)C(C(C)C)N(C)C(=O)[C@H](Cc1ccccc1)N(C)C(=O)[C@H](NC(=O)OC(C)(C)C)C(C)C (some centres not stated) (Boc-[dV][NMeF][ξNMeV][ξNMeV][dP]-OBn),,> 100 µM
CC(=O)[O-].CC(=O)[O-].[NH2-].[Pt+2].c1ccncc1,,> 100 µM
O=C(O)C#CCO,,> 100 µM
CCOC(=O)C1=C(C)NC(=O)NC1c1coc2cc(C)cc(C)c2c1=O (configuration not stated),,> 100 µM
CC(C)C(=O)/C=C/c1ccc(Cl)cc1,,60 µM
CCOC(=O)C1=C(C)NC2SC(=O)/C(=C\c3ccccc3)N2C1c1ccccc1 (configuration not stated),45.1 µM,> 100 µM
N#Cc1cccc(NC(=O)c2oc3ccccc3c2-c2cnn(-c3ccccc3)c2)c1,> 500 µM,> 500 µM
COc1ccc(/C=N/NC(=O)NCCCN(C)C)cc1,,> 100 µM
O=C(O)CCC1(Br)CCCCC(Br)C1=O (configuration not stated),,> 100 µM
CC1OC(OC2C(O)COC(OC3C(C)OC(OC4C(OC(=O)[C@]56CCC(C)(C)C[C@@H]5C5=CCC7[C@@]8(C)C[C@H](O)[C@H](OC9OC(CO)C(O)C(OC%10OC(CO)C(O)C(O)C%10O)C9O)[C@@](C)(CO)[C@@H]8CC[C@@]7(C)[C@]5(C)CC6)OCC(O)C4O)C(O)C3OC3OCC(O)C(O)C3O)C2O)C(O)C(O)C1O (some centres not stated),,15.7 µM
CC1OC(OC2CC(O)C3(CO)C4C(O)CC5(C)C(C6=CC(=O)OC6)CCC5(O)C4CCC3(O)C2)C(O)C(O)C1O (configuration not stated),< 0.0131 µM,0.0523 µM

SMILES,GI50,TGI
O=C1/C(=C/c2ccccc2)CCC/C1=C\c1ccccc1,6.28 µM and 31.7 µM,12 µM and 34.2 µM and > 100 µM
CN1CCN(C(=S)N(C(=O)c2ccco2)c2ccccc2)CC1,,> 100 µM
CN(C)CCNC(=O)c1cccc2nc3cccc(F)c3nc12,,11.8 µM
[N-]=[N+]=Nc1c([N+](=O)[O-])c(Cl)nc2ccccc12,,23.8 µM
Cc1cc2c(cc1C)[n+](=O)c(N1CCN(c3ccc([N+](=O)[O-])cc3)CC1)c(C#N)n2[O-],,> 100 µM
Cc1ccc(/C(=C/C=C(C#N)C#N)Sc2cc(Cl)ccc2Cl)cc1,,37.9 µM
CC(=O)OCC1OC(OC2=C(CC=C(Cl)Cl)C(=O)c3ccccc3C2=O)C(OC(C)=O)C(OC(C)=O)C1OC(C)=O (configuration not stated),14.2 µM,29.1 µM
O=C(Nc1ccccc1Br)c1cccc([N+](=O)[O-])c1O,,38.6 µM
COc1ccc2c(c1)nc1n2C(c2c(F)cccc2Cl)SC1 (configuration not stated),,> 81.3 µM
CC(=O)OCC12C(OC(C)=O)C[C@@H](C)C3(CC(c4ccoc4)OC3=O)C1CCC(O)C21CO1 (some centres not stated),,> 100 µM
O=C1c2nn(-c3ccccc3)nc2C(c2ccccc2)N1c1ccccc1 (configuration not stated),,> 100 µM
COc1ccc(-n2c(C)nc3ccc(NC4OCC(O)C(O)C4O)cc3c2=O)cc1 (configuration not stated),,> 100 µM
NCC(NC(=O)OCc1ccccc1)C(=O)O (configuration not stated),,> 50 µM
N#CC1CCN2N=C(c3ccccc3)SC12c1ccccc1 (configuration not stated),,> 100 µM
COc1ccc(C2ON(c3ccccn3)CC=C2C)cc1 (configuration not stated),,> 100 µM
CC(C)=CCc1c(C)cc2cc3c(c(O)c2c1O)C(O)=CC(=O)C3(CC=C(C)C)C/C=C(\C)CO (configuration not stated),,69.6 µM
COc1ccc(/C=C/c2cc(N3CCOCC3)c3cc(F)c(F)cc3n2)cc1OC,0.576 µM,16.7 µM
CC(=O)NCCc1c[nH]c2ccc(Cl)cc12,,> 100 µM
O=C(O)C1CCCCN1C(=O)c1ccccc1 (configuration not stated),,> 100 µM
CN1CCN(Cc2ccc(NC(=O)c3ccc(C#N)c(C#Cc4cnc(N)c5ncccc45)c3)cc2C(F)(F)F)CC1,5.25 µM,17.2 µM
COc1cccc(NC(=O)CC(=O)N2NC(C)C(N=Nc3cccc(C(=O)O)c3)C2=O)c1 (configuration not stated),,> 100 µM
O=P1(Oc2ccc(Cl)cc2)OCCS1 (configuration not stated),,> 100 µM
O=C(Nc1ccccc1C(=O)O)/C(=C/c1ccccc1)NC(=O)c1ccccc1,,> 100 µM
Nc1nc(NNc2ccc(Cl)c(Cl)c2)cc(=O)[nH]1,,> 100 µM

SMILES,GI50,TGI
O=C1c2ccccc2C(=O)N1CCCCCCNOCCCN1C(=O)c2ccccc2C1=O,,> 100 µM
CC[O-].Cc1ccc2cccc([O-])c2n1.Cc1ccc2cccc([O-])c2n1.Cc1ccc2cccc([O-])c2n1.[Ti+4],35.5 µM,> 61.5 µM
Oc1cc(O)c2c(=S)cc(-c3ccc(Cl)cc3)oc2c1,2.28 µM,13.8 µM
CNC(C)C(=O)N[C@H](C(=O)N1CCC[C@@H]1CN(CCc1ccccc1)C(=O)C(F)(F)F)[C@H](C)OCC#CC#CCO[C@H](C)[C@H](NC(=O)[C@H](C)NC)C(=O)N1CCC[C@H]1CN(CCc1ccccc1)C(=O)C(F)(F)F (some centres not stated),2.02 µM,3.79 µM
CN(C)c1ccc(/C=C(\NC(=O)c2ccccc2)C(=O)Nc2ccccc2C(=O)O)cc1,,> 100 µM
OC(COc1cccc2ccccc12)CN1CCN(c2ccccc2)CC1 (configuration not stated),14.5 µM,28.9 µM
C[C@]12C=CC(=O)C=C1CC[C@@H]1[C@@H]2C(=O)C[C@@]2(C)[C@H]1CC[C@]2(O)C(=O)CO,,> 100 µM
Oc1c(-c2ccccc2)sc2ccccc12,,68.6 µM
C[C@@H](NC(=O)OC1C=CC2(CC1)C(=O)N(C)c1ccccc12)c1cccc2ccccc12 (some centres not stated),,> 25 µM
CC(C)(C)[Si](C)(C)O/N=C\c1ccc(O[Si](C)(C)C(C)(C)C)cc1,,> 100 µM
CCOc1ccc2c(ccc(/C=C\c3cc(C)c4cccnc4c3O)[n+]2C)c1,,11.1 µM
CC(=O)OC1CC2(c3ccccc3)C(=O)c3ccccc3N2O1 (configuration not stated),,> 100 µM
O=[N+]([O-])c1cccc2nc3ccccc3c(NCCCN3CCOCC3)c12,,0.0979 µM
COc1cc(C2CC(c3cc(C)ccc3C)=NN2c2ccc(S(=O)(=O)NC(=O)NCc3ccccc3)cc2)cc(OC)c1OC (configuration not stated),5.41 µM,26.2 µM
COC(=O)[C@H](CC(C)C)NC(=O)NC(=O)NC(=O)CI,> 100 µM,> 100 µM
Cc1cc(C)cc(Sc2c([N+](=O)[O-])ncn2C)c1,,> 100 µM
COc1cc(C(N)=O)cc(NC(=O)/C=C/c2ccccc2)c1OC,,> 100 µM
COc1cc2c3c(n(C)c(=O)c2cc1OC)-c1cc2c(cc1/C3=C\CCCBr)OCO2,> 75.7 µM,> 100 µM
C=C(CS(=O)(=O)c1ccccc1)[P+](c1ccccc1)(c1ccccc1)c1ccccc1,,> 100 µM
O=c1c2ccccc2c(=O)c2c1cc(Cl)c1[nH]c3c([nH]c12)c(Cl)cc1c(=O)c2ccccc2c(=O)c13,,> 100 µM
Clc1ccc(OC2CCO2)cc1Cl (configuration not stated),,> 100 µM
CO/N=C1/c2sccc2[C@H](NC(=O)C(F)(F)F)[C@@H]1O,,> 100 µM
Clc1ccc(-c2nn3ncccc3c2-c2ccnc(Nc3ccccc3)n2)cc1,8.45 µM,> 25 µM

# From PubChem BioAssay (NCI)
